Results reported in the supplement of paper PMC11417369.
± gives the standard deviation of the averaged measurements. Some of the results follow.

Tested on: PfAP2-I AP2 domain 3 (GST-tagged)
Assay: gcPBM binding intensity (ln(normalized median fluorescence intensity)); higher = stronger DNA binding
Procedure, shortened: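 After 1 h on an Agilent 4 × 180k array of primer-extended double-stranded 36-bp intergenic genomic probes and negative controls, bound GST-tagged P. falciparum DNA-binding domains were detected with Alexa488 anti-GST antibody and scanned at 488 nm. The domains had been expressed in E. coli, and binding took place in 1× PBS with 1% milk, 0.2 mg/ml BSA, 0.5% salmon testes DNA and 0.03% Triton X-100. Binding intensity is the highest Masliner-normalised natural-log median intensity across replicate spots of either probe orientation.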

| Sequence | gcPBM binding intensity (ln) |
| --- | --- |
| TAAGAAAAAGGCACACGTACATAATTCAAAATAAAT [XGTACX_site982] | 8.12 ± 0.22 |
| TTTTTTTTCACACATTGTACTTTTTTATAAAATATA [XGTACX_site4351] | 8.15 ± 0.61 |
| ATTTAAATAATATGTACACACATTTAAAAAATTATA [CACACA_site2816] | 8.02 ± 0.085 |
| ATAAAATAAATAAATATAAATATATATATATATATA [TGCATGCA_negctrl_site358] | 9.26 ± 0.46 |
| TATACATATTTACAAGTGCATAATATTTTACAAAAA | 10.4 ± 0.52 |
| GTTATAACTCAAATATGTACATATTATAAAACATAT [XGTACX_site6693] | 7.92 ± 0.47 |
| AAAAAAAAAAAAAAAGGTACACAAATACGTCCTGCA [XGTACX_site3354] | 8.9 ± 0.57 |
| TTATAGAACTATATTGCACACATAATATATATATAT [CACACA_site9042] | 10.3 ± 0.46 |
| TATAAAAATAAGCACACACACAAATATATATTTATT [CACACA_site922] | 8.12 ± 0.25 |
| TAATTATAATAAAAAGGTACAGAAAAGTTATACTCA [XGTACX_site6111] | 7.67 ± 0.44 |
| AATTATCAAAGTCTATACATACATACATACATACAT [GTGCAC_negctrl_site243] | 8.55 ± 0.61 |
| TATAAATAATAAAGATGTACTTTTTATGATTCCTAC [XGTACX_site7003] | 8 ± 0.31 |
| TATAAAAAGCAAAACAAAAAAACAAATTGAAAAATT [TGCATGCA_negctrl_site158] | 7.61 ± 0.91 |
| TTACTACTATATTATACACACATATATTTATTTATA [CACACA_site7274] | 8.06 ± 0.56 |
| CCGTAGTTTTAAAATAGTACTTTTATGGTTAATAAA [XGTACX_site3162] | 7.9 ± 0.35 |
| TTTTTTATTTTTTTATTGTTTTATTGTTTCATTGTT [XGTACX_negctrl_site128] | 7.58 ± 0.63 |
| AATTAGATACTAACAAGTACATATATATATATATAT [XGTACX_site2252] | 9.715 ± 0.092 |
| TTGTAATTATTAAACACACACAAAATATCTAGAATA [CACACA_site7231] | 7.8 ± 0.47 |
| ATTTAGATTAACACTTGTACATAATACATACAAATA [XGTACX_site4147] | 7.81 ± 0.45 |

| Sequence | gcPBM binding intensity (ln) |
| --- | --- |
| ATTTTTTTTTGTGTATATAAATAAATAAATATATAT [GTGCAC_negctrl_site603] | 7.71 ± 0.43 |
| TTTCCCTAATGAAAGTGTACCTGTGAGAAAAAAAAG [XGTACX_site194] | 7.99 ± 0.6 |
| AAAAGAAAAGAGAGGAGTACAAAATATAATTATCTA [XGTACX_site5172] | 7.96 ± 0.27 |
| CATATTGGTATGCTCATGCACTTTTATTTTGTTATT [GTGCAC_site9553] | 8.52 ± 0.53 |
| TGTATATATTAATGTACACACATGCGTATGTTCGTT [CACACA_site3583] | 7.74 ± 0.47 |
| TTATTTATTTATATAGTGCAATAAACACATAAATAG | 10.8 ± 0.47 |
| AAAAAAAAAAAAAGAACACACACAGTGCACATTCGG [CACACA_site8163] | 10.7 ± 0.45 |
| TGCTCCTATTATATAGTGCATTTATTTTAATAAACG | 10.7 ± 0.56 |
| TAATTTATAAAAAATTGTACATTAAACATATATATA [XGTACX_site5164] | 7.71 ± 0.49 |
| AACCTTACACAAGGGGTGCAATATTATTTCGATAAA [GTGCAC_site9600] | 11.5 ± 0.66 |
| TCTTTTCGTTCATGCTGTACTTAATTGCTCTAATTT [XGTACX_site4816] | 8.09 ± 0.82 |
| AAAAAAAAAAAAAGCACACACACATATGTGTATATA [CACACA_site8225] | 8.33 ± 0.57 |
| CCCTGCCTCTCTTTGGTGCGTTGTAACCCTCGAGGA | 10.3 ± 0.33 |
| TAAATTGTATATGAGACTATACTATAAAAGTATGAA [XGTACX_negctrl_site22] | 7.46 ± 0.4 |
| TGTCTGTGCGGGTGTACACATTTCATATTACCCAAT [CACACA_site5593] | 8.52 ± 0.28 |
| TAATTTTTCCTTTTTGCACACATTAACGTCGACGAA [CACACA_site4025] | 10 ± 0.11 |
| CAATTTATTTTTATTACACACTATCCAAATAATTTC [CACACA_site2956] | 7.95 ± 0.4 |
| AACATACGACAATACGCACACATATATGTACATATT [CACACA_site1917] | 8.35 ± 0.61 |
| TATATAATAATTTAGAGTACTGATAAAATATTCCAT [XGTACX_site6200] | 7.55 ± 0.47 |

| Sequence | gcPBM binding intensity (ln) |
| --- | --- |
| TTAAACAATTTAGACATACACACAAAAATAATATTA [CACACA_site385] | 7.67 ± 0.59 |
| AGCATACATATTTTTTGTACATATATATATATATAT [XGTACX_site8536] | 9.38 ± 0.42 |
| CCATAAAATCATAAGCGTACTTAATATATTTTACTT [XGTACX_site559] | 7.62 ± 0.64 |
| AAATTCCACGAACACACACACATATAAATAAATAAA [CACACA_site6697] | 8.01 ± 0.23 |
| TAGTAAAAACCAAAATGTACATGTGCCATTTTTTTA [XGTACX_site2630] | 7.79 ± 0.48 |
| TATATTATACTAAGAAGTACAATATTTTTATTGTAA [XGTACX_site2810] | 7.475 ± 0.007 |
| TATAGTATTCTAAATGCATGTAAATTATGTATATAT [TGCATGCA_site931] | 8.34 ± 0.8 |
| GTTTATCACAGCCACGCACACATAATATCTGTATAT [CACACA_site5929] | 8.18 ± 0.59 |
| GATTATTAATAGTAACGTACATATGTTATAAAATAT [XGTACX_site5277] | 7.94 ± 0.58 |
| CTTATATTGTACAGTACACACCTTTATAATGTTATT [CACACA_site4280] | 8.23 ± 0.47 |
| ATCAAAAAAAAAAAAAGTACACAAAATTTTTTATTA [XGTACX_site7986] | 8.18 ± 0.23 |
| ATAATGAACAAAGTAGTGCACTTTCCTTATCTTTTC | 11.4 ± 0.26 |
| AAGGTTTAAAATTACTGTACAAATATAAATAAATAT [XGTACX_site3756] | 7.71 ± 0.43 |
| TATATGTGTGTTATATGTACTTATATATATATATAT [XGTACX_site5570] | 9.04 ± 0.26 |
| ACTAATATGTATATATATATATATATATATATATAT [CACACA_negctrl_site141] | 9.17 ± 0.49 |
| TACATATTTAAATACTGTACTCAAAAGAATTGTGCA [XGTACX_site2250] | 8.11 ± 0.11 |
| TATATATATATATATATATATATATATATATGTTGT [TGCATGCA_negctrl_site24] | 9.23 ± 0.54 |
| ACTTTAAACAAAAAAAGTACTCTTTAATGAATATAT [XGTACX_site7176] | 7.83 ± 0.34 |
| CAATATTTTATTTAAGCATGCTCTAGGGTGTAAAAG [TGCATGCA_site1001] | 8.26 ± 0.56 |
